# From the supplement of paper PMC7826260
# This is one part of the list. One pool of 16,384 single-stranded DNAs met each Rep nickase domain in vitro for 1 h at 37 °C with 3 µM enzyme; only the middle of the 90-letter strands is printed. Values are log2 of uncut reads against the no-enzyme pool; strong cutting gives strongly negative numbers. There is no active / inactive call. The scaling is to total reads; values above 0 arise when much of the pool is cut.
# System: T1, Rep nickase domain of Muscovy duck circovirus
# T1 sequence (residues 1-111, tag not shown): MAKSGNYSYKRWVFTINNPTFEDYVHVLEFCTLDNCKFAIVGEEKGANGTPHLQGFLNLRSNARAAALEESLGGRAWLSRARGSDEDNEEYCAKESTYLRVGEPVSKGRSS
# Experiment: uncleaved DNA left, log2 of reads against the no-enzyme library (log2 ratio); higher = less cleavage (more negative = more Rep cleavage of the k-mer); sequences stand for … in CTCGTCCG…ACCGGAGA
# Method: (§1)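 A pool of 90-nt single-stranded DNAs with seven random bases just before the constant AC of the nick site (name = the seven bases) was cut by 3 µM recombinant His6-SUMO-tagged Rep nickase domain (300 nM DNA, 50 mM HEPES pH 8.0, 50 mM NaCl, 1 mM MnCl2, 1 h, 37 °C, three replicates). Uncut DNA was amplified and sequenced.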
row,Sequence,uncleaved DNA left (log2)
1,AGGAGAG,0.0758
2,GGCAGTG,0.0178
3,AGCTTCA,0.0267
4,GGCACTT,-0.00638
5,ATCCGCA,-0.0663
6,ATTCTGT,-0.0584
7,ACGGACC,-0.0429
8,ACCCTTG,0.0859
9,GTAAGAT,0.0376
10,ACGGGAG,0.0733
11,AAGCGTT,0.0254
12,ATTTACT,-3.37
13,ATTTGTG,-0.0226
14,AATGGAA,-0.04
15,TATCTTC,-0.155
16,ATCCCCT,0.0537
17,GCGTAAG,0.0543
18,GCTATTG,-0.0898
19,GATGAGA,0.174
20,ACGTCCA,-0.256

row,Sequence,uncleaved DNA left (log2)
1,CGTGAAT,0.0653
2,GACTGGT,-0.252
3,CTCTATC,-0.104
4,TAGATCA,0.0399
5,CGGCCCA,-0.128
6,GGATGTT,-0.778
7,AGTATGC,0.0527
8,GTAAATG,0.116
9,GTCGGTC,-0.00518
10,CCTCCCG,-0.0536
11,TTGTTTC,-0.0263
12,CGATTTC,0.0528
13,TCCTGCT,-0.769
14,TTTTGGA,0.0286
15,GGCCACG,0.0517
16,GTCACGA,0.0101
17,CAGTGGG,0.0226
18,ACAGAGA,0.0464
19,ATATTCG,0.0505
20,CTCCGGC,-0.0552

# System: T2, Rep nickase domain of banana bunchy top virus
# T2 sequence (residues 1-94, tag not shown): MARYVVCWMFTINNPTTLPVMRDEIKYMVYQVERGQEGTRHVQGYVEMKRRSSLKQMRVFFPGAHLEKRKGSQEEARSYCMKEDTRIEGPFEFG
# Experiment: as above
# Method: as §1
row,Sequence,uncleaved DNA left (log2)
1,AGGAGAG,0.108
2,GGCAGTG,0.0825
3,AGCTTCA,-0.0154
4,GGCACTT,0.0473
5,ATCCGCA,-0.144
6,ATTCTGT,-0.142
7,ACGGACC,0.0395
8,ACCCTTG,0.00703
9,GTAAGAT,0.0685
10,ACGGGAG,-0.0597
11,AAGCGTT,-0.0777
12,ATTTACT,-3.52
13,ATTTGTG,-0.0194
14,AATGGAA,-0.0652
15,TATCTTC,0.0493
16,ATCCCCT,0.0229
17,GCGTAAG,0.104
18,GCTATTG,-0.0823
19,GATGAGA,0.108
20,ACGTCCA,-0.0464

row,Sequence,uncleaved DNA left (log2)
1,CGTGAAT,0.0784
2,GACTGGT,-0.107
3,CTCTATC,-0.056
4,TAGATCA,0.124
5,CGGCCCA,-0.0499
6,GGATGTT,-0.00176
7,AGTATGC,0.0644
8,GTAAATG,0.0746
9,GTCGGTC,0.0213
10,CCTCCCG,-0.092
11,TTGTTTC,-0.234
12,CGATTTC,0.0752
13,TCCTGCT,-0.122
14,TTTTGGA,0.0114
15,GGCCACG,0.145
16,GTCACGA,0.0378
17,CAGTGGG,-0.089
18,ACAGAGA,-0.148
19,ATATTCG,0.107
20,CTCCGGC,0.00805

# System: T3, Rep nickase domain of cabbage leaf curl virus
# T3 sequence (residues 1-116, tag not shown): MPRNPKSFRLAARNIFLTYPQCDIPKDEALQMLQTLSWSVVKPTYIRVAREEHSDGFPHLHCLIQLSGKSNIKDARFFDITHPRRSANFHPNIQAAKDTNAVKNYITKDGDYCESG
# Experiment: as above
# Method: as §1
row,Sequence,uncleaved DNA left (log2)
1,AGGAGAG,-0.135
2,GGCAGTG,-0.143
3,AGCTTCA,0.132
4,GGCACTT,0.627
5,ATCCGCA,-0.388
6,ATTCTGT,-0.18
7,ACGGACC,0.0607
8,ACCCTTG,-0.786
9,GTAAGAT,-0.0517
10,ACGGGAG,-0.635
11,AAGCGTT,-0.0364
12,ATTTACT,-0.728
13,ATTTGTG,-0.598
14,AATGGAA,0.147
15,TATCTTC,0.04
16,ATCCCCT,-0.172
17,GCGTAAG,-0.142
18,GCTATTG,-0.336
19,GATGAGA,0.163
20,ACGTCCA,-0.254

row,Sequence,uncleaved DNA left (log2)
1,CGTGAAT,0.169
2,GACTGGT,0.0327
3,CTCTATC,-0.0204
4,TAGATCA,0.194
5,CGGCCCA,-0.0738
6,GGATGTT,0.662
7,AGTATGC,-0.302
8,GTAAATG,-0.0223
9,GTCGGTC,0.623
10,CCTCCCG,-0.651
11,TTGTTTC,-0.00631
12,CGATTTC,-0.0329
13,TCCTGCT,-0.542
14,TTTTGGA,-0.00804
15,GGCCACG,-0.0332
16,GTCACGA,0.312
17,CAGTGGG,-0.736
18,ACAGAGA,0.0517
19,ATATTCG,-0.74
20,CTCCGGC,-0.00491
